Laboratory results: PubChem BioAssay AID2100 (National Center for Advancing Translational Sciences (NCATS), 2009)
In all, about 300,000 compounds went through this assay and about 1,200 (0.4%) were called active. Inconclusive means that the source gave no clear call. Such entries were picked first, then a sample of the others. The call rests on the fitted dose curve; in most records, active means well fitted inhibition curve with a large enough effect; inconclusive means small, poorly fitted or top-dose-only effect, or another doubt; inactive means no such curve, though single readings can be large or run the other way. Where the call is inconclusive, the potency comes from a doubtful curve fit.

Target: Lysosomal alpha-glucosidase (Homo sapiens) (UniProt P10253)
Assay: qHTS Assay for Inhibitors and Activators of Human alpha-Glucosidase Cleavage of Glycogen;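 on activity change, negative = inhibition: 0% = full enzyme reaction and -100% = no-enzyme basal signal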
Conditions: recombinant GAA, glycogen substrate, Amplex Red glucose oxidase fluorescence; activity change, negative = inhibition: at 76.4 µM (top of the series) unless noted
Procedure, shortened: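 qHTS, 1536-well; enzyme 4 nM final; cpd up to 77 uM; substrate bovine liver glycogen 30 ug; 50 mM citrate/phosphate pH 5.0, 0.01% Tween-20; 37 C, 40 min; Amplex Red detection 45 min RT; Hill fit → AC50.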
Potency means the concentration at half of the fitted maximal effect.

SMILES	activity change, negative = inhibition	Potency
Cc1ccc(OCCSc2nc3ccccc3n2CC(=O)NC(C)C)cc1	inactive: -12.9% [at 76.3 µM]	–
Cc1cc(C(F)(F)F)nc(SCc2ccc(C(=O)O)o2)n1	inactive: -0.626%	–
CC(=O)C1=C(C)OC(N)=C(C#N)C1c1cc2cccc(C)c2nc1Cl (centres undefined)	–	inconclusive: 35.2 µM [inhibitor, single point]
Cc1ccc(Nc2cc(C)nc(-c3ccccc3O)n2)cc1	inactive: -10.5%	–
N/C(=N\N=C\c1ccc(O)c(O)c1)c1nonc1N	–	inconclusive: 35.5 µM [inhibitor, partial curve]
Cc1ccc(C)n1-c1ccc(C(=O)NCC2CCCO2)cc1 (centres undefined)	inconclusive: 31.9% [activator]	–
CCN(CC)c1ccc(/C=N/N2CCN(Cc3ccc(C)cc3C)CC2)c(O)c1	–	inconclusive: 4.47 µM [inhibitor, full curve]
COc1cc(-c2nc3cccc(C)n3c2Nc2ccc3c(c2)OCCO3)ccc1O	–	inconclusive: 6.31 µM [inhibitor, partial curve]
Cc1cc(-c2nc(C)c(C(=O)NN)s2)no1	–	inconclusive: 50.1 µM [inhibitor, single point]
COc1ccc(CNC(=O)C2CCC(CNS(=O)(=O)c3cccc4nsnc34)CC2)cc1 (centres undefined)	–	inconclusive: 31.6 µM [inhibitor, partial curve, poor fit]
Cc1sc2ncn(C(C)C(=O)OC3CCCCC3)c(=O)c2c1C (centres undefined)	–	inconclusive: 31.6 µM [inhibitor, single point]
c1csc(-c2nc3ccccn3c2Nc2ccc3c(c2)OCCO3)c1	–	active: 12.6 µM
Cc1cccc2cc(C#N)c(NCCNS(=O)(=O)c3ccccc3)nc12	inactive: -4.4%	–
CCOC(=O)c1c(C)oc2c1c(C=NCCC(=O)O)c(O)c1ccccc12	–	inconclusive: 25.1 µM [inhibitor, partial curve]
COc1cc(NS(=O)(=O)c2ccc(NC(=S)NC(=O)/C=C/c3ccc(OC)c(OC)c3)cc2)ncn1	–	inconclusive: 17.8 µM [activator, partial curve, poor fit]
O=C1Nc2ccccc2C12Nc1ccccc1S2 (centres undefined)	–	inconclusive: 22.2 µM [inhibitor, single point]
COc1ccc(/C(C)=N/Nc2nc3ccccc3nc2C)cc1	–	inconclusive: 14.1 µM [inhibitor, partial curve]
CC(=O)Nc1ccc(C(=O)CSc2nnc(Cc3ccccc3)o2)cc1	–	inconclusive: 35.5 µM [inhibitor, single point]
CNC(=S)Nc1ccc2[nH]c(=O)[nH]c2c1	–	inconclusive: 35.5 µM [inhibitor, partial curve]
Cc1cc(C)nc(SCc2ccc(C(=O)N/N=C3\CC(C)CC(C)(C)C3)cc2)n1 (centres undefined)	–	inconclusive: 44.7 µM [inhibitor, partial curve, poor fit]
CN(C)c1ccc(NC2=C([N+](=O)[O-])CS(=O)(=O)C2)cc1	–	inconclusive: 22.2 µM [inhibitor, partial curve]
CC1=[N+](C)N(c2ccccc2)C(=O)C1N=Cc1ccccc1Cl (centres undefined)	–	inconclusive: 5.01 µM [inhibitor, single point]

SMILES	activity change, negative = inhibition	Potency
C/C(CC(=O)Nc1ccc2ccccc2c1)=N\NC(=O)c1ccc(O)c(O)c1	–	inconclusive: 28.2 µM [inhibitor, single point]
Cn1c(N2CCOCC2)c(/C=N/OC(=O)c2cccnc2Cl)c2ccccc21	–	inconclusive: 17.8 µM [inhibitor, partial curve]
Cc1ccc(C)c(Cn2c3ccccc3c3cnn(CC(=O)NCC(C)c4ccccc4)c(=O)c32)c1 (centres undefined)	–	inconclusive: 11.2 µM [inhibitor, partial curve]
C=CCNC(=S)NNC(=O)c1ccc(OCC(C)C)cc1	–	inconclusive: 3.52 µM [inhibitor, full curve]
CCNC(=S)NNC(=O)c1ccc(=O)n(Cc2ccccc2)c1	–	inconclusive: 12.6 µM [inhibitor, partial curve]
CCOC(=O)c1c(/N=C/c2ccc(O)cc2O)sc2c1CCC2	–	active: 35.5 µM
Cc1ccc2nc(N3C(=O)C(O)=C(C(=O)c4ccc(C)o4)C3c3cccc(O)c3)sc2c1 (centres undefined)	inactive: 19.6%	–
CC(C)NC(=O)CC(=O)N/N=C/c1ccccc1F	–	inconclusive: 7.08 µM [inhibitor, single point]
C/C(CCc1oc2c(Br)cc(Br)cc2c1-c1ccc(C)o1)=N\O	inactive: -19.4%	–
COc1cc(/C=N/N2CCN(c3ccccc3OC)CC2)ccc1OC(C)=O	–	inconclusive: 50.1 µM [inhibitor, single point]
CNC(=O)c1ccc(CSc2nc3cccnc3n2Cc2cccc(F)c2)cc1	inactive: -12.9% [at 76.3 µM]	–
COc1ccc(C2=NS(=O)(=O)N(C)C(C(=O)N3CCCCC3C)=C2)cc1 (centres undefined)	–	inconclusive: 11.2 µM [inhibitor, single point]
COc1c(O)ccc2c1CN1CCc3cc4c(cc3C1C2)OCO4 (centres undefined)	–	inconclusive: 39.5 µM [inhibitor, single point]
c1ccc(-c2nc3ccccc3[nH]2)cc1	–	inconclusive: 31.6 µM [inhibitor, partial curve]
Oc1c(Cl)cc(Cl)c2c1NCCC2	–	active: 14 µM
COc1cccc2sc(NNC(=O)COc3ccccc3)nc12	–	inconclusive: 28.2 µM [inhibitor, partial curve]
O=C1c2ccccc2N2C(=O)c3ccccc3C2N1O (centres undefined)	–	inconclusive: 28 µM [inhibitor, partial curve]
CCOc1ccc(NCc2cc3c(C(C)(C)C)nn(-c4ccccc4)c3[nH]c2=O)cc1	–	inconclusive: 12.6 µM [inhibitor, partial curve]
Cc1cccc(Nc2nc(CC(=O)O)cs2)c1	–	inconclusive: 14.1 µM [inhibitor, partial curve]
Oc1ccc(-c2nc3ncccn3c2Nc2ccc3c(c2)OCO3)cc1	–	active: 24.9 µM
O=C(O)CC1=C(O)C(=O)N(c2ccccc2)C1c1ccc(Br)cc1 (centres undefined)	–	active: 24.9 µM
Cc1ccc(N2C(=O)C3C(C2=O)N2CCCN2C3c2ccccc2)cc1C (centres undefined)	–	inconclusive: 11.1 µM [inhibitor, partial curve]
